Results as given in the antibiotic and cytotoxicity screens of Wong et al. (2023).
The list shows a part of the results.

test system: HepG2; test: cytotoxicity call (relative viability < 0.9); conditions: 10 µM

| SMILES | cytotoxicity call |
| --- | --- |
| C[C@@H]1S[C@H](C)C(=O)NC1=O | inactive |
| C[C@@H]1CN([C@@H](C)CO)C(=O)c2cccc(NS(=O)(=O)c3cn(C)cn3)c2O[C@@H]1CN(C)S(=O)(=O)c1cn(C)cn1 | inactive |
| Cc1cnc(N)c(C)n1 | inactive |
| O=C(CCc1cn(CC(=O)N2CCC3(CC2)C(=O)NCN3c2ccccc2)nn1)NO | active |
| CO/N=C(\C(=O)N[C@@H]1C(=O)N2C(C(=O)O)=C(CSc3nnnn3C)CS[C@H]12)c1csc(N)n1 | inactive |
| C[C@@H]1CN([C@H](C)CO)C(=O)c2cc(NC(=O)Cn3cnnn3)ccc2O[C@@H]1CN(C)Cc1ccc(Oc2ccccc2)cc1 | inactive |
| Cc1noc(C)c1S(=O)(=O)N(C)C[C@@H]1Oc2ccc(NC(=O)c3ccncc3)cc2CC(=O)N([C@@H](C)CO)C[C@@H]1C | inactive |
| C[C@H](CO)N1C[C@H](C)[C@H](CN(C)Cc2ccc(C(F)(F)F)cc2)OCCCC[C@H](C)Oc2ccc(NC(=O)Nc3ccc(F)cc3)cc2C1=O | active |
| COc1ccc(-c2nc(-c3ccc(C)cc3C)cs2)cc1 | inactive |
| CN1Cc2c(CN3CCCC3=O)nn(C)c2C1 | inactive |
| C=CC1(C)CC(=O)C2(O)C(C)(O1)C(O)C(O)C1C(C)(C)CCC(O)C12C (centres undefined) | inactive |
| C[C@@H]1CN([C@H](C)CO)S(=O)(=O)c2ccc(C#Cc3ccncc3)cc2O[C@H]1CN(C)C(=O)C1CCC1 | active |
| CCC(C)C1OC2(C=CC1C)CC1CC(CC=C(C)C(OC3CC(OC)C(OC4CC(OC)C(NC(C)=O)C(C)O4)C(C)O3)C(C)C=CC=C3COC4C(O)C(C)=CC(C(=O)O1)C34O)O2 (centres undefined) | inactive |
| Cc1noc(C)c1NC(=O)N(C)C[C@@H]1Oc2c(NC(=O)c3ccc(-c4nccs4)cc3)cccc2C(=O)N([C@H](C)CO)C[C@@H]1C | inactive |
| C[C@@H]1CN([C@@H](C)CO)C(=O)c2cc(NC(=O)C3CCCCC3)ccc2O[C@@H](C)CCCCO[C@@H]1CN(C)S(=O)(=O)c1ccc(Cl)cc1 | inactive |
| C[C@@H]1CCCCO[C@H](CN(C)C(=O)Nc2ccc(C(F)(F)F)cc2)[C@H](C)CN([C@H](C)CO)C(=O)c2cc(NC(=O)Nc3ccc(C(F)(F)F)cc3)ccc2O1 | inactive |
| Cc1ccc(Cc2nc(-c3ccc(Cl)cc3)cs2)cc1 | active |
| C[C@@H]1CN([C@@H](C)CO)C(=O)c2cccc(NC(=O)Nc3ccc(F)cc3)c2O[C@H]1CN(C)CC1CCCCC1 | inactive |
| COc1ccc(C#Cc2cnc3c(c2)C(=O)N([C@H](C)CO)C[C@@H](C)[C@@H](CN(C)C(=O)CC2CC2)O3)cc1 | inactive |
| C[C@H](CO)N1C[C@H](C)[C@H](CN(C)S(=O)(=O)c2cn(C)cn2)Oc2c(NC(=O)C3CC3)cccc2C1=O | inactive |
| C[C@H](CO)N1C[C@H](C)[C@@H](CN(C)Cc2ccc(C(F)(F)F)cc2)Oc2ccc(NC(=O)Cc3cn(C)c4ccccc34)cc2C1=O | inactive |
| C[C@@H]1CN([C@@H](C)CO)C(=O)c2cccc(NC(=O)C3CCCCC3)c2O[C@H]1CN(C)C(=O)Nc1cccc2ccccc12 | inactive |
| CC(C)(Sc1cc(C(C)(C)C)c(O)c(C(C)(C)C)c1)Sc1cc(C(C)(C)C)c(OC(=O)CCC(=O)O)c(C(C)(C)C)c1 | inactive |
| CC[C@@H](CO)NCCN[C@@H](CC)CO | inactive |
| CSc1cccc2sc(Nc3ccc(Cl)cc3)nc12 | inactive |
| C[C@H](CO)N1C[C@H](C)[C@@H](CN(C)Cc2ccc3c(c2)OCO3)OCCCC[C@H](C)Oc2ccc(NS(=O)(=O)c3ccc(Cl)cc3)cc2C1=O | inactive |
| COCC#Cc1ccc([C@@H]2[C@@H](CO)N3C(=O)CN(C(=O)C4CCOCC4)C[C@@H]23)cc1 | inactive |
| CCOC(=O)c1cccnc1N | inactive |
| C[C@H]1CCCCO[C@@H](CN(C)S(=O)(=O)c2ccc(F)cc2)[C@@H](C)CN([C@@H](C)CO)C(=O)c2cc(NC(=O)NC3CCCCC3)ccc2O1 | inactive |
